Drawing on PMC12136788, this text covers binding signal for 22 molecules.

Some of the results follow.

T1: UNK ZnF1-3 (human, UniProt Q9C0B0 31-174)
T1 sequence: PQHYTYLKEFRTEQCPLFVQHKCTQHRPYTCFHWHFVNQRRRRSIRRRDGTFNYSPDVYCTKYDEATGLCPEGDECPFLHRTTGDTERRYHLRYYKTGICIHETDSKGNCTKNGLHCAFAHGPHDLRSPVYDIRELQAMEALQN

B1: chr8:80578333:80578334:+_ENSG00000104435_ENST00000220876|hu_hu|motif|central (ssRNA)
RNA: GGGAGUUCUACAGUCCGACGAUCAACUCCAAUUCUUUAUUAAUCACAGCUUGCUCACAAUGACAUACAGGAAAAUAGCACGGAUGAAGAGUAAAUAUGCAGGCAGCAACCUUCAGGAGUUGGGAGUUGGGGAGAAACGACUUCCAACAGAGGAUUGAGCAUCA
B2: chr7:6639541:6639542:+_ENSG00000146576_ENST00000344417|hu_hu|motif|central (ssRNA)
RNA: GGGAGUUCUACAGUCCGACGAUCGGGUGCCUUCACGCACCAGCGGAUCAAUCCAACGAGCGGGGUGAGCUCUAAGAAUCCGGUUGGCAGAUUGGCCGCAAUCGGAGUAUUUAAAAAAGUGAUGAGAAUCAACCUUGGGUCCUCCAACAGAGGAUUGAGCAUCA
B3: chr2:117085994:117085995:+_ENSMUSG00000027349_ENSMUST00000028825|mus_hu|FALSE|FALSE (ssRNA)
RNA: GGGAGUUCUACAGUCCGACGAUCUGACUUGGGUAUACCAAGUGUAUCAAACAUAGCUUGAACUUCCUGAUAAACUUCACUAUUUUUAUCUAAUUGAGAAUUUUUAUGUUUCUUGUUCUGUAAUAUCUGUGAAGCUUGAAGUUCCAACAGAGGAUUGAGCAUCA
B4: chr19:8913615:8913616:-_ENSMUSG00000071658_ENSMUST00000096259|mus_hu|mus_mus_mus_hu_False|68_98 (ssRNA)
RNA: GGGAGUUCUACAGUCCGACGAUCAGGGUACCAAAACACCCUGCCUCAAAUGGGUGCCCCACCCAGUCAGGACUUGGAGCUGAAAGUAUCUGAUGCAGAAGCAGUGACUAUACGAAAGGAGGCCCCUGGGGAGGGCCAGGCCAGCAACAGAGGAUUGAGCAUCA
B5: chr1:46073211:46073212:+_ENSG00000132780_ENST00000537798|hu_mus|FALSE|FALSE (ssRNA)
RNA: GGGAGUUCUACAGUCCGACGAUCAGAAGCGACCUCAUCUUCAUUCAGUCCUGGUAUUGCUGCUUCUUUUGCCUCUUCAGAGGAUUCAGUUAACUGCUUUGAAGUCGGUUCAACUGUUUCCUGGAGCUUCUCUUCAGGCUCACUCAACAGAGGAUUGAGCAUCA
B6: chr12:109547708:109547709:+_ENSG00000076248_ENST00000242576|hu_hu|FALSE|FALSE (ssRNA)
RNA: GGGAGUUCUACAGUCCGACGAUCAGACUUCUGCAGCAGCUCAUUGGUCUUUGAAAAGUGUCUACAUCCAAAGAACCCUCUAUACACUGACAAAGGGGAGGGAUGAGCCGUCUGUAGUACAUGGUGCCGCUUCCUAUCAAUGGCCAACAGAGGAUUGAGCAUCA
B7: chr16:91657502:91657503:+_ENSMUSG00000022961_ENSMUST00000114036|mus_mus|FALSE|FALSE (ssRNA)
RNA: GGGAGUUCUACAGUCCGACGAUCUCUAGGUGCUAACCUGUAUGGCCUAGGUGCUAUCCUAUAGGACCUGGGUGCUAUUCUAUAGGGCCUAGGUGAUACCCUAUAGGGAUCCGGAGUUAGUCUGUAGGGAUCAUGGCCUAAUCUCAACAGAGGAUUGAGCAUCA
B8: chr4:175158536:175158537:-_ENSG00000164117_ENST00000503293|hu_mus|motif|central (ssRNA)
RNA: GGGAGUUCUACAGUCCGACGAUCGAUUUUACACACAGGCUGGACUGGAGUGACCAGUGCUGAUGCAACCCUGCUGCCACGGAGUCUGUCCCUGGGUAGCCUCAGUCUGGAGUAAAAAGUUGAAGUUCGAACACUUGUGCUUUUCAACAGAGGAUUGAGCAUCA
B9: chr6:40197388:40197389:+_ENSMUSG00000057716_ENSMUST00000061740|mus_mus|mus_mus_mus_hu_False|28_28 (ssRNA)
RNA: GGGAGUUCUACAGUCCGACGAUCGAGACACUGGGGUGGAUUUAUUCCACCUCUGUUUGGGUGCUAGCCACUAAGACUGUUAUUUUGGGAUUCAUGGCCUUGAAUAUCAAGAGGAAAAGGAAGAGGAUGGAAAGAGUCAAGAGUCAACAGAGGAUUGAGCAUCA
B10: chr1:220276048:220276049:+_ENSG00000067704_ENST00000302637|hu_mus|FALSE|FALSE (ssRNA)
RNA: GGGAGUUCUACAGUCCGACGAUCGCAAAUUGCCUGGUUGGCGGGAAUUGUCCAAGGCUGGGUGGUCCAAACUAAAACGCUAACAGGGGAUGAGGCAUCUGUAAGAGACUCCAACUUCGGAGGAGGUCUCAGGAGGGGGAAUCUCAACAGAGGAUUGAGCAUCA
B11: 74386376_74392459_548_CDS_ENSG00000114978_ENST00000396049|human|control|control (ssRNA)
RNA: GGGAGUUCUACAGUCCGACGAUCGACACCAAUCUUAGAAGGAAAAAGAGUUUCAUCAUCAAGCUGAUCUUGAACCCAAGUCAUCAAAUAGUCAAUGUAUUUUGGUGCAGAACAUUUGAUUGGCUUUUUAAUAUUAGUACCAUCCAACAGAGGAUUGAGCAUCA
B12: chr2:210595268:210595269:+_ENSG00000078018_ENST00000392194|hu_hu|motif|central (ssRNA)
RNA: GGGAGUUCUACAGUCCGACGAUCUGUAAAGCCAGUGUCUUCCUGUUGCAAAUGGAAAUCAGGUCAAUUUCUGCAUGUACGGUUCAUUUUUUAAAUAGAAAAUUGUAACAAUUACUACAGUUUGGGGAUGAGAUUAUUUAUUUUCAACAGAGGAUUGAGCAUCA
B13: chr4:47484081:47484082:-_ENSMUSG00000039740_ENSMUST00000044148|mus_mus|FALSE|FALSE (ssRNA)
RNA: GGGAGUUCUACAGUCCGACGAUCCCAUUACGCUCUGAAGUCAAAUCAAUUGACUGUGACAAUGGUAAGACCUACACUACUAAAGCCAAUUAAGGCACUGGAUGAUCAAACCUUUAUAUAUAAAGGAACAAUAAUCCAGGAAAACAACAGAGGAUUGAGCAUCA
B14: chr12:42180722:42180723:-_ENSMUSG00000036295_ENSMUST00000043884|mus_hu|mus_mus_mus_hu_True|48_88 (ssRNA)
RNA: GGGAGUUCUACAGUCCGACGAUCCUGUAGGAGAAGAAUCUGUGUGUCGGCAGGCAAUCUGGCUGGGAAAGUUAAAAGACCUAAAUCAUUACAGUCCACUGUAGAUGCUUCCAUAUAAAUGGAUCUGGGUGUAAACCAAGGCCUCAACAGAGGAUUGAGCAUCA
B15: chr7:151048522:151048523:+_ENSG00000013374_ENST00000566856|hu_mus|hu_hu_hu_mus_True|8_68 (ssRNA)
RNA: GGGAGUUCUACAGUCCGACGAUCCUGUUUCUUAUUUAUUACGAUCUUGAUGUAAUUUUCUUGAAAUCCAAAGGUUUCAGCUAUUUGACACCUCAGGUCUCUACCAGUGACAUGCAAGCGGGUCUCCAACAAGUUUUUCUUAUCCAACAGAGGAUUGAGCAUCA
B16: chr11:87793471:87793472:-_ENSMUSG00000020483_ENSMUST00000020775|mus_mus|mus_mus_mus_hu_False|38_78 (ssRNA)
RNA: GGGAGUUCUACAGUCCGACGAUCUGGACUUGAAAAUAAAAGAAUAAGCUGGAUCCCCCCACCCCUUACAUUGUCAACCCUACACGAGAGUUUUGAAUGAUUCAUAAGAAAAUCAGCAGCUCAAACGGCAAUGACCACCCCACCCAACAGAGGAUUGAGCAUCA
B17: 40942872_40943970_480_3pUTR_ENSMUSG00000001627_ENSMUST00000001672|mouse|control|control (ssRNA)
RNA: GGGAGUUCUACAGUCCGACGAUCCUUCAAGAGCUGCCUGUCUUGUCUUCGCACUCUUAUCAAGGGUUAGGUCAAUUAAUCCCUUCAACUUGUACUCUAAGUCUUCUUGAGUUCCUUCCUCAUCAAGAACUUCUGGCCCAUCCUCAACAGAGGAUUGAGCAUCA
B18: chr4:133217533:133217534:-_ENSMUSG00000043257_ENSMUST00000062118|mus_mus|FALSE|FALSE (ssRNA)
RNA: GGGAGUUCUACAGUCCGACGAUCUACAUAGCAAGCAAGUUCUAGGACAGUCAGAGUUACACAGAGGGACCUUGUCUUAGCUCCCCUGACUACCCCUCCUCCAGAAAAAGGUAAUUCAUUGCAAAAGGAGUAUUUAGAUUUUCACAACAGAGGAUUGAGCAUCA
B19: chr2:179979976:179979977:-_ENSG00000187231_ENST00000335289|hu_hu|FALSE|FALSE (ssRNA)
RNA: GGGAGUUCUACAGUCCGACGAUCCCUGUAGCAACUGCCUGCCAUAGUCAUAAGUGCUCUGUGCAACAUCAACAAAUUUUCUAUGCUUUUCCAGCAAAACUUUCGUUUCUUGAGCAUCAUCGCCCAAUCUGAUGUGAGUCUUAACAACAGAGGAUUGAGCAUCA
B20: chr5:145543945:145543946:-_ENSG00000133706_ENST00000545646|hu_hu|hu_hu_hu_mus_True|18_18 (ssRNA)
RNA: GGGAGUUCUACAGUCCGACGAUCCUGAACGGCCAGUGGUGGGAAAUAAUCAAGCCAGUGCUCUGCUUCAGAAAACUUCACUAUGUCGUCAUCAGAGAGCCCAAGGGAUUUCAUAAUGCCCCACUGGUACUUAGAAGAUCCUGCCAACAGAGGAUUGAGCAUCA
B21: chr11:118888195:118888196:-_ENSG00000118181_ENST00000527673|hu_hu|motif|central (ssRNA)
RNA: GGGAGUUCUACAGUCCGACGAUCUUUAUAGUUGGGAACUUCCUUACAGAGUUUAUCAUAGGUAGCUUUGUCAAACAAGACGGAGUUAUUGAGCUUGUCCCGAACUUUGCCUUUGGACCACUUCUUCUUUUUGGCCUUGCCCCCCAACAGAGGAUUGAGCAUCA
B22: chr5:37680062:37680063:+_ENSMUSG00000029121_ENSMUST00000031004|mus_hu|mus_mus_mus_hu_False|18_58 (ssRNA)
RNA: GGGAGUUCUACAGUCCGACGAUCUUUGGGUGUAGCUGGUACCUCGUACACAGGACCGUCAUACAUGCCCCUGGAAACACUAUGCAAUCCAAAAACCUUAUUCCUGAUUUUGACGCGCUGGUAGAGAUGCUCCGGGAACGCCUUCAACAGAGGAUUGAGCAUCA

The assay concerns the target T1, UNK ZnF1-3. The assay is described as follows: nsRBNS (natural sequence RNA bind-n-seq); RBNS binding buffer (assumed for nsRBNS): 25 mM Tris pH 7.5, 150 mM KCl, 3 mM MgCl2, 0.01% Triton X-100, 500 ug/ml BSA, 20 U/ml SUPERase-In, 4 C; UNK is unkempt and MSI1 is Musashi-1; names of the RNAs are library labels; protein concentration not given here; high values mean tight binding.
B1 registered a binding signal of 1.9 enrichment R.

On to B2, for which the binding signal was 1.76 enrichment R.

In turn, B3 had a binding signal of 0.227 enrichment R.

Take B4: the binding signal is 1.64 enrichment R.

For B5, the binding signal turned out to be 0.545 enrichment R.

With B6, the binding signal came out at 1.59 enrichment R.

In turn, B7 displayed a binding signal of 0.421 enrichment R.

On to B8, for which the binding signal stood at 0.878 enrichment R.

Consider B9, for which the binding signal amounted to 1.48 enrichment R.

For the molecule B10, the binding signal was found to be 1.77 enrichment R.

For the molecule B11, the binding signal is 1.06 enrichment R.

Turning to B12, the binding signal amounted to 2.59 enrichment R.

For B13, the binding signal was found to be 0.628 enrichment R.

With B14, the binding signal was found to be 1.22 enrichment R.

B15 returned a binding signal of 0.63 enrichment R.

Consider B16, for which the binding signal is 1.68 enrichment R.

As to B17, the binding signal was 0.529 enrichment R.

As to B18, the binding signal was found to be 1.06 enrichment R.

B19 came in with a binding signal of 0.93 enrichment R.

With B20, the binding signal came out at 0.897 enrichment R.

For B21, the binding signal is 0.694 enrichment R.

Molecule B22 came in with a binding signal of 0.837 enrichment R.
